# Positions count from the first letter of the chain named. The list shows a part of the results.
# T1: RBFOX1 RRM (Homo sapiens, UniProt Q9NWB1 109-208)
# T1 sequence: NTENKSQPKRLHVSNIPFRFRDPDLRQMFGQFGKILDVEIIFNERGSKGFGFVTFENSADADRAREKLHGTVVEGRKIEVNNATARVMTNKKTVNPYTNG
# B1: AACACGA (DNA:RNA)
# RNA: GGGAGACCGGAAUUCAGAUUGUCCAACACGAUUAAAUCCCGUCGUAGCCACCA
# DNA 1: CAATCTGAATTCCGGTCTCCC
# DNA 2: TGGTGGCTACGACGGGATT
# B2: GAUUCCU (DNA:RNA)
# RNA: B1 RNA with A25G, C27U, A28U, G30C, A31U
# DNA 1: CAATCTGAATTCCGGTCTCCC
# DNA 2: TGGTGGCTACGACGGGATT
# B3: GACUGCG (DNA:RNA)
# RNA: B1 RNA with A25G, A28U, C29G, G30C, A31G
# DNA 1: CAATCTGAATTCCGGTCTCCC
# DNA 2: TGGTGGCTACGACGGGATT
# B4: UAUGACC (DNA:RNA)
# RNA: B1 RNA with A25U, C27U, A28G, C29A, G30C, A31C
# DNA 1: CAATCTGAATTCCGGTCTCCC
# DNA 2: TGGTGGCTACGACGGGATT
# B5: UUUGGGA (DNA:RNA)
# RNA: B1 RNA with A25U, A26U, C27U, A28G, C29G
# DNA 1: CAATCTGAATTCCGGTCTCCC
# DNA 2: TGGTGGCTACGACGGGATT
# B6: GCCAGUG (DNA:RNA)
# RNA: B1 RNA with A25G, A26C, C29G, G30U, A31G
# DNA 1: CAATCTGAATTCCGGTCTCCC
# DNA 2: TGGTGGCTACGACGGGATT
# B7: CCAGUUA (DNA:RNA)
# RNA: B1 RNA with A25C, A26C, C27A, A28G, C29U, G30U
# DNA 1: CAATCTGAATTCCGGTCTCCC
# DNA 2: TGGTGGCTACGACGGGATT
# B8: UUGGGAU (DNA:RNA)
# RNA: GGGAGACCGGAAUUCAGAUUGUCCUUGGGAUUUAAAUCCCGUCGUAGCCACCA
# DNA 1: CAATCTGAATTCCGGTCTCCC
# DNA 2: TGGTGGCTACGACGGGATT
# B9: CGGGACG (DNA:RNA)
# RNA: B8 RNA with U25C, U26G, G29A, A30C, U31G
# DNA 1: CAATCTGAATTCCGGTCTCCC
# DNA 2: TGGTGGCTACGACGGGATT
# B10: GACCUGU (DNA:RNA)
# RNA: B1 RNA with A25G, A28C, C29U, A31U
# DNA 1: CAATCTGAATTCCGGTCTCCC
# DNA 2: TGGTGGCTACGACGGGATT
# B11: CGGUGCC (DNA:RNA)
# RNA: B8 RNA with U25C, U26G, G28U, A30C, U31C
# DNA 1: CAATCTGAATTCCGGTCTCCC
# DNA 2: TGGTGGCTACGACGGGATT
# B12: UCAGGCC (DNA:RNA)
# RNA: B8 RNA with U26C, G27A, A30C, U31C
# DNA 1: CAATCTGAATTCCGGTCTCCC
# DNA 2: TGGTGGCTACGACGGGATT
# B13: UGUUCUA (DNA:RNA)
# RNA: B1 RNA with A25U, A26G, C27U, A28U, G30U
# DNA 1: CAATCTGAATTCCGGTCTCCC
# DNA 2: TGGTGGCTACGACGGGATT
# B14: UCGGCCG (DNA:RNA)
# RNA: B8 RNA with U26C, G29C, A30C, U31G
# DNA 1: CAATCTGAATTCCGGTCTCCC
# DNA 2: TGGTGGCTACGACGGGATT
# B15: GGCUGAG (DNA:RNA)
# RNA: B8 RNA with U25G, U26G, G27C, G28U, U31G
# DNA 1: CAATCTGAATTCCGGTCTCCC
# DNA 2: TGGTGGCTACGACGGGATT
# B16: GUUGUUG (DNA:RNA)
# RNA: B8 RNA with U25G, G27U, G29U, A30U, U31G
# DNA 1: CAATCTGAATTCCGGTCTCCC
# DNA 2: TGGTGGCTACGACGGGATT
# B17: CCGCGCU (DNA:RNA)
# RNA: B8 RNA with U25C, U26C, G28C, A30C
# DNA 1: CAATCTGAATTCCGGTCTCCC
# DNA 2: TGGTGGCTACGACGGGATT
# B18: GAUUCGU (DNA:RNA)
# RNA: B1 RNA with A25G, C27U, A28U, A31U
# DNA 1: CAATCTGAATTCCGGTCTCCC
# DNA 2: TGGTGGCTACGACGGGATT
# B19: UGAAUGC (DNA:RNA)
# RNA: B1 RNA with A25U, A26G, C27A, C29U, A31C
# DNA 1: CAATCTGAATTCCGGTCTCCC
# DNA 2: TGGTGGCTACGACGGGATT
# B20: AGGAGCA (DNA:RNA)
# RNA: B1 RNA with A26G, C27G, C29G, G30C
# DNA 1: CAATCTGAATTCCGGTCTCCC
# DNA 2: TGGTGGCTACGACGGGATT
# B21: ACACGAG (DNA:RNA)
# RNA: B8 RNA with U25A, U26C, G27A, G28C, U31G
# DNA 1: CAATCTGAATTCCGGTCTCCC
# DNA 2: TGGTGGCTACGACGGGATT
# B22: AAGGUCC (DNA:RNA)
# RNA: B1 RNA with C27G, A28G, C29U, G30C, A31C
# DNA 1: CAATCTGAATTCCGGTCTCCC
# DNA 2: TGGTGGCTACGACGGGATT
# B23: ACCUUCA (DNA:RNA)
# RNA: B1 RNA with A26C, A28U, C29U, G30C
# DNA 1: CAATCTGAATTCCGGTCTCCC
# DNA 2: TGGTGGCTACGACGGGATT
# B24: GAUAGGU (DNA:RNA)
# RNA: B1 RNA with A25G, C27U, C29G, A31U
# DNA 1: CAATCTGAATTCCGGTCTCCC
# DNA 2: TGGTGGCTACGACGGGATT
# B25: UCCGAUU (DNA:RNA)
# RNA: B8 RNA with U26C, G27C, G29A, A30U
# DNA 1: CAATCTGAATTCCGGTCTCCC
# DNA 2: TGGTGGCTACGACGGGATT
# B26: UGCGGAC (DNA:RNA)
# RNA: B8 RNA with U26G, G27C, U31C
# DNA 1: CAATCTGAATTCCGGTCTCCC
# DNA 2: TGGTGGCTACGACGGGATT
# B27: ACCGUGU (DNA:RNA)
# RNA: B1 RNA with A26C, A28G, C29U, A31U
# DNA 1: CAATCTGAATTCCGGTCTCCC
# DNA 2: TGGTGGCTACGACGGGATT
# B28: CGUAUAG (DNA:RNA)
# RNA: B1 RNA with A25C, A26G, C27U, C29U, G30A, A31G
# DNA 1: CAATCTGAATTCCGGTCTCCC
# DNA 2: TGGTGGCTACGACGGGATT
# B29: UCAUCUG (DNA:RNA)
# RNA: B1 RNA with A25U, A26C, C27A, A28U, G30U, A31G
# DNA 1: CAATCTGAATTCCGGTCTCCC
# DNA 2: TGGTGGCTACGACGGGATT
# B30: UACCUCC (DNA:RNA)
# RNA: B1 RNA with A25U, A28C, C29U, G30C, A31C
# DNA 1: CAATCTGAATTCCGGTCTCCC
# DNA 2: TGGTGGCTACGACGGGATT
# B31: UACCCCC (DNA:RNA)
# RNA: B1 RNA with A25U, A28C, G30C, A31C
# DNA 1: CAATCTGAATTCCGGTCTCCC
# DNA 2: TGGTGGCTACGACGGGATT
# Molecular target: T1, RBFOX1 RRM
# Assay: EMSA; HiTS-Eq, 1 nM pool, 10 min; buffer printed only for the single-RNA assays: 10 mM Tris pH 7.5, 150 mM NaCl, 3.4 mM EDTA, 0.001% NP-40, 30 C
# Conditions: tags: His6 N-terminal (pET28a); label: 5' 32P
# Procedure, shortened: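 Purified RbFox RRM, wild type or mutant, was incubated for 10 min in 50 µL with 1 nM of a 5′-radiolabelled RNA pool carrying 7 randomized nucleotides, whose flanks were annealed to DNA oligonucleotides, over a series of increasing protein concentrations. Unbound RNA was resolved on 8% native PAGE, cut out, reverse-transcribed, barcoded by PCR and sequenced on an Illumina HiSeq 2500. Relative association constants were derived from changes in read counts for each RNA species versus the control reaction and normalised to the cognate motif.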
row,Binder,binding signal
1,B1,0.0013 KA relative to UGCAUGU
2,B2,0.00855 KA relative to UGCAUGU
3,B3,0.0225 KA relative to UGCAUGU
4,B4,0.00466 KA relative to UGCAUGU
5,B5,0.003 KA relative to UGCAUGU
6,B6,0.0161 KA relative to UGCAUGU
7,B7,0.00482 KA relative to UGCAUGU
8,B8,0.0112 KA relative to UGCAUGU
9,B9,0.0184 KA relative to UGCAUGU
10,B10,0.015 KA relative to UGCAUGU
11,B11,0.0119 KA relative to UGCAUGU
12,B12,0.0149 KA relative to UGCAUGU
13,B13,0.0171 KA relative to UGCAUGU
14,B14,0.017 KA relative to UGCAUGU
15,B15,0.0207 KA relative to UGCAUGU
16,B16,0.0233 KA relative to UGCAUGU

row,Binder,binding signal
1,B17,0.0117 KA relative to UGCAUGU
2,B18,0.0162 KA relative to UGCAUGU
3,B19,0.0399 KA relative to UGCAUGU
4,B20,0.0164 KA relative to UGCAUGU
5,B21,0.00452 KA relative to UGCAUGU
6,B22,0.0113 KA relative to UGCAUGU
7,B23,0.00186 KA relative to UGCAUGU
8,B24,0.0129 KA relative to UGCAUGU
9,B25,0.00941 KA relative to UGCAUGU
10,B26,0.0112 KA relative to UGCAUGU
11,B27,0.00728 KA relative to UGCAUGU
12,B28,0.00844 KA relative to UGCAUGU
13,B29,0.00773 KA relative to UGCAUGU
14,B30,0.00373 KA relative to UGCAUGU
15,B31,0.0022 KA relative to UGCAUGU

# Source: article PMC9911399, “Two distinct binding modes provide the RNA-binding protein RbFox with extraordinary sequence specificity”
